For 7 compounds, EC50 and EC90 results are on record in patent US11857560B2, “Pharmaceutical compositions comprising substituted nucleotides and nucleosides for treating viral infections” (priority 2013, dated 2024).

For test [1], the system named is HCV replicon GT1a. Put plainly: Inhibition of HCV replicons, GT1a. It is filed as cell-based. Conditions: Hepatitis C virus, wild-type replicon.
Test [2] has as its system HCV Replicon GT-1b. As to the kind of experiment: microbe, parasite or virus in culture. Conditions: Hepatitis C virus, GT1B, read-out: HCV Replicon Assay EC90 uM.
Test [3] relates to HCV replicon GT1b. As to the kind of experiment: Inhibition of HCV replicons, GT1b. Conditions: Hepatitis C virus, wild-type replicon. It is filed as cell-based.

In test [1], `CC(C)OC(=O)[C@H](C)NP(=O)(OC[C@H]1O[C@@H](n2ccc(=O)[nH]c2=S)[C@](C)(O)C1O)Oc1ccccc1` (some centres unmarked) [ENUC-01911-2] showed an EC50 of 0.0765 µM. In the case of `CC(C)OC(=O)[C@H](C)NP(=O)(OC[C@H]1O[C@@H](n2ccc(=S)[nH]c2=O)[C@](C)(O)C1O)Oc1ccccc1` (some centres unmarked) [ENUC-01920-1], in test [2], the EC90 was determined as 35.7 µM.

In the case of `CC(C)OC(=O)[C@H](C)NP(=O)(OC[C@H]1O[C@@H](n2ccc(=O)[nH]c2=O)[C@](C)(O)C1O)Oc1ccccc1` (some centres unmarked) [ENUC-01982-1], the 90% effect concentration (EC90) in test [2] amounted to 0.168 µM. Turning to `CC(C)OC(=O)[C@H](C)N[P@](=O)(OC[C@H]1O[C@@H](n2ccc(=O)[nH]c2=S)[C@](C)(O)C1O)Oc1ccccc1` (some centres unmarked) [ENUC-02023-1], the results for the concentration giving a half-maximal response (EC50) in test [1] and in test [3] were 0.0265 µM and 0.0491 µM, respectively.

As for `CC(C)OC(=O)[C@H](C)N[P@](=O)(OC[C@H]1O[C@@H](n2ccc(=O)[nH]c2=O)[C@](C)(F)C1O)Oc1ccccc1` (some centres unmarked) [ENUC-02025-1], the EC90 in test [2] came to 0.0803 µM.

As to `CC(C)OC(=O)[C@H](C)N[P@@](=O)(OC[C@H]1O[C@@H](n2ccc(=O)[nH]c2=O)[C@](C)(F)C1O)Oc1ccccc1` (some centres unmarked) [ENUC-02026-1], the 90% effect concentration (EC90) in test [2] was 0.893 µM. Turning to `CC(C)OC(=O)[C@H](C)NP(=O)(OC[C@H]1O[C@@H](n2ccc(=O)[nH]c2=[Se])[C@](C)(O)C1O)Oc1ccccc1` (some centres unmarked) [ENUC-02058-1], the EC90 in test [2] was found to be 43.6 µM.
